We go through 86 sequences from the supplement of paper PMC3334620.

In all, about 33,000 sequences were measured (“E-score (-0.5 to 0.5)”: median about -0.012, highest 2% from about 0.27 on). The list shows a part of the results.

The experiment deals with T1, Vhr1 (UniProt P40522).
T1 sequence: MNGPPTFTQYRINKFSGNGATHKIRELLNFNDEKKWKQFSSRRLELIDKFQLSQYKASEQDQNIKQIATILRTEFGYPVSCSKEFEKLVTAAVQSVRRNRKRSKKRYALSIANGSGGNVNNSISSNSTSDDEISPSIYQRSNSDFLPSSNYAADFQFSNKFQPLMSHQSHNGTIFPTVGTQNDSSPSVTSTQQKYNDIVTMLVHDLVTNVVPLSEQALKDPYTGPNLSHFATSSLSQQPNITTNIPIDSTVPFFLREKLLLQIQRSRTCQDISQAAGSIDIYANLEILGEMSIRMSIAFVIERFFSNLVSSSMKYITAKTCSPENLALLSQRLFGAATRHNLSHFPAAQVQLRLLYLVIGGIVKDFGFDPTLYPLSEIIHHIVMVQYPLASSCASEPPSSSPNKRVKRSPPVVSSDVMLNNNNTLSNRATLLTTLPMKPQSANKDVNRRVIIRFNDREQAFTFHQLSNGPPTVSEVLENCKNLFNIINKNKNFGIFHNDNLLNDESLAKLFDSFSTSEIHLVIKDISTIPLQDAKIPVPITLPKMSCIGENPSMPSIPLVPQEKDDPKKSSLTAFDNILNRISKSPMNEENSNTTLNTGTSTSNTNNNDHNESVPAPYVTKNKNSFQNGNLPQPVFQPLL
The experiment in a line: PBM E-score (8-mer binding enrichment) (E-score (-0.5 to 0.5)); higher = stronger / more preferred TF binding; most listed sequences are background and not binding sites. Particulars: protein concentration: 200 nM; construct: GST-full length. In short, it runs like this: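 Masliner-normalised scans of fluorescent anti-GST signal were the basis for scoring. That signal came from GST-tagged yeast transcription factors applied at about 100-200 nM to double-stranded universal all-10-mer Agilent arrays on fresh or once-stripped slides. Each ungapped eight-base word, pooled with its reverse complement, received an E-score from the Universal PBM Analysis Suite.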
As to AGTGGCAT, the “PBM E-score” value was -0.0608.
As for GCGAAGCA, the “PBM E-score” value is -0.157.
The value for AACTCAAT was -0.00662; that for AACAATGG was 0.0497.
Regarding GCGAATAC, the “PBM E-score” value amounted to 0.0661.
CGGTACCC: the “PBM E-score” value is -0.131.
In the case of AACTGGCA it was -0.195; in that of CCGCATGC, 0.0646.
The value for CCCAGCAG was 0.0474; that for ATACTTTA was -0.0673.
In the case of ATCTCTAG it was -0.149; in that of CCGTCCCC, 0.0563.
Turning to CTGCATAC, the “PBM E-score” value worked out at 0.235.
In the case of TAGACAAA it was -0.0115.
In the case of CCAGGCCA it was -0.19; in that of AATGTTCG, -0.131; in that of CAGCATCA, 0.105.
The value for GCCATTTA was -0.195; that for TATTTTGA was -0.168; that for CAAAGGCA was -0.0467.
With TCGTCCAA, the “PBM E-score” value was -0.108.
In the case of ATGGGAAT it was -0.292; in that of GCATGCCA, 0.0578.
CTGTTCAA: the “PBM E-score” value is -0.165.
The value for CACGCTTC was 0.00973; that for CCCATTTC was -0.0913; that for GTGCGCTA was 0.0251.
In the case of AAATAGCT it was -0.0895; in that of AAACGACT, 0.0184; in that of CTATCATA, 0.164.
The value for ACTATACT was 0.23; that for TTCCCCAA was 0.0625; that for CAAGTTAA was -0.203.
As to ACGATGCC, the “PBM E-score” value is -0.257.
In the case of ATCAACAA it was 0.215; in that of CTAAAGCC, -0.336; in that of ATAAGTTG, 0.0186.
In the case of ACGACGTA it was -0.108; in that of ATACGGTG, 0.241; in that of AACTACCT, 0.0216.
The value for GCGCAACA was 0.0338.
Take CCGGTAAC: the “PBM E-score” value is 0.0166.
In the case of ATGAAATG it was -0.00211; in that of GGCTGAAC, 0.17.
Take GCGTCTTA: the “PBM E-score” value was -0.283.
In the case of CCGACACC it was -0.0624; in that of AGGAAGTG, 0.0468; in that of GTACGTGA, 0.00511.
The value for GAGAGGCC was -0.195; that for AATTGTGT was -0.017.
The value for GGTTGATA was 0.00555; that for CGCGCTTA was 0.0997.
For CATTTACA, the “PBM E-score” value was -0.0127.
In the case of CTAGTTTA it was -0.201; in that of AGGACGAG, -0.0546; in that of ACTCATAT, 0.229.
The value for AAAGTGGA was -0.181; that for CGTGTTAG was -0.00744.
In the case of GCATGTTA it was 0.0328; in that of GAAAGGTC, -0.163.
For the sequence ACTTGACG, the “PBM E-score” value is -0.0804.
For ACCCTCTG, the “PBM E-score” value is -0.0294.
Take CTTTGCGA: the “PBM E-score” value came to 0.0545.
In the case of AAGGCCTA it was -0.183; in that of GGGTGACC, 0.0504; in that of CCTGGGAG, -0.0626.
With AAGGGCTA, the “PBM E-score” value is -0.247.
The value for CGAGGATC was -0.0337; that for CGAACAGA was 0.032; that for ACCGACAT was 0.127.
The value for GTCGCGAA was 0.0553.
On to ACCAAACC, for which the “PBM E-score” value came out at 0.18.
In the case of TATCCGAA it was 0.0741; in that of GAGAGCCA, -0.0281.
The value for CCGGGTTC was 0.169.
Take GCCAGGTA: the “PBM E-score” value was -0.0461.
In the case of CCAGGCTC it was 0.00703; in that of AAGATCAC, 0.071.
In the case of AACGTTAC it was -0.158; in that of AACTATAC, 0.114.
As for GCGATGCA, the “PBM E-score” value is -0.195.
The value for GAAGATCA was -0.185.
For AGTTCATC, the “PBM E-score” value was -0.151.
The value for AAGGATGT was 0.0183; that for GGCGGGTA was 0.0114; that for CACCGTTA was 0.0439.
